For assay [1], the target named is SARS-CoV-2 Wuhan-Hu-1 spike pseudovirus. Kind of assay: pseudovirus neutralization IC50; higher = weaker neutralization. Here is the method:
(§1)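 Single-round luciferase reporter pseudovirus mixed with antibody dilutions and put on 293T-ACE2 cells for 48 h; signal relative to no-antibody wells, four-parameter fit.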

The target is the same in assay [2]. Kind of assay: pseudovirus neutralization IC90; higher = weaker neutralization. Here is the method:
as §1

Assay [3] concerns the target SARS-CoV-2 Wuhan-Hu-1 spike receptor-binding domain. Kind of assay: ELISA binding EC50; higher = weaker binding; ELISA of recombinant human antibody on coated antigen, from 10 µg/ml in fourfold dilutions; four-parameter fit. In general terms: In an ELISA, binding on a coated surface is turned into a signal by an enzyme label.

Changes are numbered by the printed parent chain. Recombinant human monoclonal antibodies (heavy:light variable regions). ELISA EC50 on the named antigen, from 10 µg/ml down; IC50 / IC90 against spike pseudovirus on 293T-ACE2 cells, 48 h; lower = stronger. Calls: IC50 above 1,000 ng/ml = non-neutralizing; EC50 above 2,000 ng/ml = non-binder. The source prints 1000 for neutralization that was not reached; it is given as >1000 ng/ml. A few antibodies were first reported in earlier work of the same group.

The values below come from the supplement of paper PMC8674133.

B1: C2148 (protein)
chain 1: EVQLVESGGGLIQPGGSLRLSCVASGFTVSSNYMSWVRQAPGKGLEWVSLIYSGGSTFYADSVKGRFTISRDNSKNTLYLQMNSLRAEDTAVYYCARDLSYYGMDVWGQGTTVTVSS
chain 2: DIQLTQSPSFLSASVGDRVTITCRASQGISSYLAWYQQKPGKAPKLLIYAASTLQSGVPSRFSGSGSGTEFTLTISSLQPEDFATYYCQQLNSYLFTFGPGTKVDIK
Turning to B1, the “pseudovirus neutralization IC50” value in assay [1] worked out at 0.0335 µg/mL. The “pseudovirus neutralization IC90” value in assay [2] was found to be 0.451 µg/mL. Besides, the “ELISA binding EC50” value in assay [3] amounted to 0.00199 µg/mL.

B2: C2244 (protein)
chain 1: EVQLVESGGGLVQPGGSLRLSCAASGFTVSSNYMTWVRQAPGKGLEWVSVIYSGGSTYYADSVKGRFTISRHNSKNTLYLQMNSLRAEDTAVYYCARDLEERGAFDIWGQGTMVTVSS
chain 2: DIQMTQSPSSLSASVGDRVTITCRASQGISSWLAWYQQKPGKAPKLLIYVASSLQSAVPSRFSGSGSGTDFTLTISSLQPEDFATYYCQQAHSFPLYTFGQGTKLEIK
Consider B2, for which, in assay [1], the “pseudovirus neutralization IC50” value was 0.0109 µg/mL. Also, in assay [2], the “pseudovirus neutralization IC90” value was 0.0809 µg/mL. In addition, the “ELISA binding EC50” value in assay [3] amounted to 0.00271 µg/mL.

B3: C2033 (protein)
chain 1: B2 chain 1 with V12I, T35S, V50L, H72D, E101L, R102K
chain 2: DIQLTQSPSFLSASVGDRVTITCRASQGISSYLAWYQQKPGKAPKLLIYAASTLQSGVPSRFSGSGSGTEFTLTISSLQPEDFATYYCQQLNSYSPWTFGQGTKVEIK
In the case of B3, in assay [1], the “pseudovirus neutralization IC50” value turned out to be 0.0237 µg/mL. For the same molecule, in assay [2], the “pseudovirus neutralization IC90” value turned out to be 0.18 µg/mL. The “ELISA binding EC50” value in assay [3] worked out at 0.00165 µg/mL.

B4: C2006 (protein)
chain 1: EVQLVESGGGLIQPGGSLRLSCAASGFTVSSNYMSWVRQAPGKGLEWVSVIYSGGSTFYADSVKGRFTISRDNSKNTLYLQMNSLRAEDTAVYYCARELDTIFDYWGQGTLVTVSS
chain 2: B3 chain 2 with S95P, W97Y, V105L
With B4, the “pseudovirus neutralization IC50” value in assay [1] stood at 0.0942 µg/mL. Further, the “pseudovirus neutralization IC90” value in assay [2] is 0.886 µg/mL. Besides, the “ELISA binding EC50” value in assay [3] turned out to be 0.00327 µg/mL.

B5: C2008 (protein)
chain 1: EVQLVESGGGLVQPGRSLRLSCAASGFTFDDYAMHWVRQAPGKGLEWVSGISWNSGSIGYADSVKGRFTISRDNAKNSLYLQMNSLRAEDTALYYCAKDAGKGQWLVDLYFDYWGQGTLVTVSS
chain 2: SYELTQPPSVSVAPGQTARITCGGNNIGSKSVHWYQQKPGQAPVLVVYDDSDRPSGIPERFSGSNSGNTATLTISRVEAGDEADYYCQVWDSSSDRGVFGGGTKLTVL
On to B5, for which the “pseudovirus neutralization IC50” value in assay [1] is more than 1 µg/mL. For the same molecule, the “pseudovirus neutralization IC90” value in assay [2] was more than 1 µg/mL. In addition, in assay [3], the “ELISA binding EC50” value stood at 0.00364 µg/mL.

B6: C2327 (protein)
chain 1: VQLVESGPGLVKPSETLSLTCTVSAGSITNYYWSWIRQPPGKGLEWIGYIYYSGSTNYNPSLKSRVTISVDTSKNQFSLKLSSVTAADTAVYYCARLAPFFYDSSGYYSRSFDYWGQGTLVTVSS
chain 2: QSALTQPASVSGSPGQSITISCTGTSSDVGSYNLVSWYQQHPGKAPKLMIYEGSKRPSGVSNRFSGSKSGNTASLTISGLQAEDEADYYCCSYAGSVLFGGGTKLTVL
On to B6, for which the “pseudovirus neutralization IC50” value in assay [1] was more than 1 µg/mL. Moreover, the “pseudovirus neutralization IC90” value in assay [2] was more than 1 µg/mL. Further, the “ELISA binding EC50” value in assay [3] was determined as 0.00529 µg/mL.

B7: C2325 (protein)
chain 1: EVQLVESGGGVIQPGGSLRLSCAASGLTVSSNYMTWVRQAPGKGLEWVSVIYSGGSTYYADSVKGRCTISRDNSKNTLYLQMNSLRAEDTAVYYCARYMGDGMDVWGQGTTVTVSS
chain 2: DIQLTQSPSSVSASVGDTVTITCRASQGIGSWLAWYQQKPGKAPKLLIYAASSLQSGVPSRFSGSGSGTDFTLTISSLQPEDFATYYCQEANSFPPITFGQGTRLEIK
Consider B7, for which, in assay [1], the “pseudovirus neutralization IC50” value worked out at 0.0168 µg/mL. Besides, the “pseudovirus neutralization IC90” value in assay [2] turned out to be 0.0823 µg/mL. Moreover, the “ELISA binding EC50” value in assay [3] came to 0.00135 µg/mL.

B8: C2322 (protein)
chain 1: EVQLLESGGTLVQPGGSLRLSCVASGFTFDTYAMSWVRRAPGRGLEWVATFSGSGGKTYYADSVKGRFRISRDNSKNTLYLQMNSLRVEDTAVYYCARDQFRKKYDYWSAYYTHNYSGIGYFEEWGQGTLVTVSS
chain 2: IRMTQSPSSLSASVGDRVTITCQASQDISNYLNWYQQKPGKAPKLLIYDASNLETGVPSRFSGSGSGTDFTFTISSLQPEDIATYYCQQYDNLPPTFGQGTKLEIK
Turning to B8, the “pseudovirus neutralization IC50” value in assay [1] is more than 1 µg/mL. Moreover, the “pseudovirus neutralization IC90” value in assay [2] is more than 1 µg/mL. Further, in assay [3], the “ELISA binding EC50” value was more than 10 µg/mL.

B9: C2324 (protein)
chain 1: EVQLVESGGGLIQPGGSLRLSCAASGFTVSSNYMSWVRQAPGKGLEWVSVIYSGGSTYYADSVKGRFTISRDNSKNTLYLQMNSLRAEDTAVYYCARHPLPVSHYYYGMDVWGQGTTVTVSS
chain 2: B8 chain 2 with P95V, Q99G, L103V
Consider B9, for which, in assay [1], the “pseudovirus neutralization IC50” value is more than 1 µg/mL. The “pseudovirus neutralization IC90” value in assay [2] was more than 1 µg/mL. In addition, in assay [3], the “ELISA binding EC50” value was determined as 0.0101 µg/mL.

B10: C2153 (protein)
chain 1: QVQLQQWGAGLLKPSETLSLTCAVFGGSFSDYYWSWIRQPPGKGLEWIGEISHSGTTNCKPSLKSRVTISVDTSKNQFSLRLNSVTAADTAVYYCARATMADIAVATPRRAFDVWGQGTMVTVSS
chain 2: DIVMTQSPGSLAVSLGERATINCKSSQSVLYSSNNKNYLAWYQQKAGQPPKLLIYWASTRESGVPDRFSGSGSGTDFTLTISSLQAEDVAVYYCQQYYSTSITFGQGTRLEIK
As to B10, in assay [1], the “pseudovirus neutralization IC50” value was more than 1 µg/mL. In addition, the “pseudovirus neutralization IC90” value in assay [2] was more than 1 µg/mL. The “ELISA binding EC50” value in assay [3] is more than 10 µg/mL.

B11: C2395 (protein)
chain 1: EVQLVESGGGLIQPGGSLRLSCAASGFTVSINYMTWVRQAPGKGLEWVSVIYSGGSTYYADSVKGRFTISRDNSKNTLYLQMNSLRAEDTAVYYCARGYGDLYFDYWGQGTLVTVSS
chain 2: DIQLTQSPSFLSASVGDRVTITCRASQGISSYLAWYQQKPGKAPKLLIYAASTLQSGVPSRFSGSGSGTEFTLTISSLQPEDFATYYCQHLRTFGQGTKVEIK
On to B11, for which the “pseudovirus neutralization IC50” value in assay [1] was 0.0226 µg/mL. The “pseudovirus neutralization IC90” value in assay [2] is 0.216 µg/mL. The “ELISA binding EC50” value in assay [3] turned out to be 0.00205 µg/mL.

B12: C2323 (protein)
chain 1: QVQLVQSGAEVKKPGSSVKVSCKASGGTFSNYAIRWVRQAPGQGLEWMGGIIPIFGTANYAQKFQGRVTITADESTSTAYMELSSLRSEDTAVYYCAREPGLHTGHLDHWGQGTLVTVSS
chain 2: IRMTQSPSSLSASVGDRVNITCQASQDISNYVNWYQQKPGKAPKLLIYDASNLETGVPSRFSGSGSGTDFTFTISSLQPEDIATYYCQQYDNVPSLTFGGGTKVEIK
In the case of B12, the “pseudovirus neutralization IC50” value in assay [1] is more than 1 µg/mL. For the same molecule, the “pseudovirus neutralization IC90” value in assay [2] is more than 1 µg/mL. Also, the “ELISA binding EC50” value in assay [3] came out at 0.00266 µg/mL.

B13: C2035 (protein)
chain 1: VQLVESGGGVVQPGRSLRLSCAASGFTFSSYGMHWVRQAPGKGLEWVAVISYDGSNKYYADSVKGRFTISRDNSKNTLYLQMNSLRAEDTAVYYCAKVGGPYCSGGSCYGGYFDYWGQGTLVTVSS
chain 2: IRMTQSPSSLSASVGDRVTITCQASQDISNYLNWYQQKPGKAPKLLIYDASNLETGVPSRFSGSGSGTDFTFTISSLQPEDIATYYCQQYDNLPGFGPGTKVEIK
Turning to B13, the “pseudovirus neutralization IC50” value in assay [1] was more than 1 µg/mL. In addition, the “pseudovirus neutralization IC90” value in assay [2] was more than 1 µg/mL. Also, in assay [3], the “ELISA binding EC50” value was 0.00234 µg/mL.

B14: C2001 (protein)
chain 1: QVQLVQSGAEVKKPGSSVKVSCQASGGTFSNYGLSWVRQSPGQGLEWMGGIIPLFRTGNYAQKFQGRVTITADRSTSTVYMQLSGLTSEDTAVYFCARDLSPCLGGDCDLFGGGRKPHWYFGLWGRGTLVTVSS
chain 2: IVLTQSPGTLSLSPGERVTLSCRASQSVSSHLAWYQQKPGQAPRLLIHGASSRATGIPDRFSGSGSGTDFTLTISRLGPEDFAVYYCQQYGTSPTFGGGTKVEIK
For the molecule B14, the “pseudovirus neutralization IC50” value in assay [1] is more than 1 µg/mL. Besides, the “pseudovirus neutralization IC90” value in assay [2] is more than 1 µg/mL. Besides, the “ELISA binding EC50” value in assay [3] was 0.00523 µg/mL.

B15: C2011 (protein)
chain 1: QVQLQESGPGLVKPSETLSLTCTVSGGSISSYYWSWIRQPPGKGLEWIGYIYYSGSTNYNPSLKSRVTISVDTSKNQFSLKLSSVTAADTAVYYCASYYYDSSGYYYGMDVWGQGTTVTVSS
chain 2: DIQLTQSPSFLSASVGDRVTITCRASQGISSYLAWYQQKPGKAPKLLIYAASTLQSGVPSRFSGSGSGTEFTLTISSLQPEDFATYYCQQLNSYLTFGQGTRLEIK
On to B15, for which the “pseudovirus neutralization IC50” value in assay [1] was more than 1 µg/mL. Further, the “pseudovirus neutralization IC90” value in assay [2] is more than 1 µg/mL. Also, the “ELISA binding EC50” value in assay [3] came out at 0.00362 µg/mL.

B16: C2002 (protein)
chain 1: QVQLQQWGAGLLKPSETLSRTCAVYGGSFSGYYWSWIRQSPGKGLEWIGEINHRGSTNYNPSLKSRVTISVDTSKNQLSLELRSVTAADTAVYYCARSPGWTTVTRPFDYWGQGALVTVSS
chain 2: EIVLTQSPGTLSLSPGERATLSCRASQSVSNSYLAWYQQKPGQAPRLLVLGASNRATGIPDRFSGSGSGTDFTLTISRLEPEDFAVFYCQQYSSSPVTFGQGTRLEIK
Consider B16, for which the “pseudovirus neutralization IC50” value in assay [1] was more than 1 µg/mL. Further, the “pseudovirus neutralization IC90” value in assay [2] is more than 1 µg/mL. For the same molecule, the “ELISA binding EC50” value in assay [3] was found to be 0.0914 µg/mL.
